According to PubChem BioAssay AID504845 (National Center for Advancing Translational Sciences (NCATS), 2011):
Screen size: about 390,000 compounds; about 150 (0.038%) were called active. The shares of active, inactive and inconclusive entries below differ from those in the screen. Calls come from the whole dose curve; as a rule, active = well fitted inhibition curve with a large enough effect; inconclusive = small, poorly fitted or top-dose-only effect; inactive = no such curve, though single readings can be large or run the other way. Where the call is inconclusive, the potency comes from a doubtful curve fit.
Note: nearly all actives have a fitted effect of over 75% in size.
Potency is the fitted concentration of half-maximal effect; tags give direction and shape of the fitted curve.

These compounds were tested against Regulator of G-protein signaling 4 (Homo sapiens) (UniProt P49798) (assay: Inhibitors of Regulator of G Protein Signaling (RGS) 4: qHTS). Conditions: Transcreener GDP fluorescence polarization, RGS4-accelerated GTP hydrolysis; series mostly up to 114 µM.
Sequence of UniProt P49798 (P49798 whole entry, looked up): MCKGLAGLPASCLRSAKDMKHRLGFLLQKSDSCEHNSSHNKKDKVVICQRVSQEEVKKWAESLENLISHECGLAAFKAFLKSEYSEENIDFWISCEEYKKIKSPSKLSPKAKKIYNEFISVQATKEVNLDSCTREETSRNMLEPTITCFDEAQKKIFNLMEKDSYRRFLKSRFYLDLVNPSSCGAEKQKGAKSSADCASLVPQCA
Summary of the method: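 MLSMR compounds (23 nl, pin-transferred) preincubated 10 min at room temperature with a 500nM (2x) first reagent, then RGS4 at 900nM (2x) plus Transcreener GDP mix added; fluorescence polarization (620/688 nm) read before and after 90 min at 30 °C.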
For `Fc1ccccc1/C=N/N1CCN(Cc2ccccc2Cl)CC1`, the Potency was inconclusive: 79.4 µM [inhibitor, partial curve, poor fit]. `COc1ccccc1NC(=O)c1c(NCc2ccc(C)o2)sc2c1CCCCC2` was tested, and the Potency was inconclusive: 50.1 µM [inhibitor, partial curve, poor fit]. With `CCC(C)NC(=O)/C=C/c1cccs1` (stereo not drawn) the Potency was “inactive”. With `Cc1cc(NC(=O)Cn2nc(C(=O)O)c3ccccc3c2=O)ccc1Br` the Potency was inconclusive: 17.8 µM [inhibitor, partial curve, poor fit]. In the case of `Cc1cc(C)c(C(=O)N2CCCC(CNS(=O)(=O)c3cccs3)C2)o1` (stereo not drawn), the Potency is reported as “inactive”. In the case of `Cc1cccc2c1N(Cc1ccccc1OCCC(C)C)C(=O)C2=O`, the Potency is reported as inconclusive: 17.8 µM [inhibitor, full curve, poor fit]. In the case of `COC(=O)C(C)N1C(=O)S/C(=C\c2ccc(-c3ccc(C(=O)O)cc3C)o2)C1=O` (stereo not drawn), the Potency is reported as inconclusive: 31.6 µM [inhibitor, full curve, poor fit]. With `O=C(CSc1nc2ccccc2s1)NC1CCS(=O)(=O)C1` (stereo not drawn) the Potency was inconclusive: 100 µM [inhibitor, partial curve, poor fit]. `Cc1ccc(CN(Cc2ccco2)C(=O)c2oc3cc(Br)ccc3c2C)cc1` was tested, and the Potency was “inactive”. In the case of `O=C(CSC1=NCCS1)c1ccc(Cl)cc1`, the Potency is reported as inconclusive: 44.7 µM [inhibitor, partial curve, poor fit]. For `O=C(CCOc1ccccc1)N(Cc1cccnc1)c1nc2ccc(Cl)cc2s1`, the Potency was inconclusive: 89.1 µM [inhibitor, partial curve, poor fit]. `O=C(COc1ccccc1)NNC(=O)COc1ccc([N+](=O)[O-])cc1` was tested, and the Potency was inconclusive: 17.8 µM [inhibitor, full curve, poor fit]. For `Cn1c(=O)c2c(nc(-n3ccnc3)n2Cc2ccc([N+](=O)[O-])cc2)n(C)c1=O`, the Potency was inconclusive: 89.1 µM [inhibitor, single point]. `NC(=O)COc1ccc(/C=C2\C(=O)ON=C2c2ccccc2)cc1` was tested, and the Potency was inconclusive: 28.2 µM [inhibitor, full curve, poor fit]. `NNc1nc2c(F)cc(F)cc2s1` was tested, and the Potency was inconclusive: 50.1 µM [inhibitor, partial curve, poor fit]. In the case of `Cn1c(=O)n(C)c2cc([N+](=O)[O-])c(N3CCN(C(=O)c4cccc(Cl)c4)CC3)cc21`, the Potency is reported as inconclusive: 89.1 µM [inhibitor, single point]. With `Cc1ccc(S(=O)(=O)n2nc(C)c(C#N)c2N)cc1` the Potency was inconclusive: 50.1 µM [inhibitor, partial curve, poor fit]. In the case of `Cc1nnc(C)c2c(C)n(-c3ccc(Cl)c(N)c3)c(C)c12`, the Potency is reported as “inactive”. `COc1cccc(OCCOc2ccc(/C=C3/SC(=S)NC3=O)cc2)c1` was tested, and the Potency was inconclusive: 100 µM [inhibitor, partial curve, poor fit]. In the case of `CCNC(=S)/N=C(\N)Nc1nc(C)c2cc(C)ccc2n1`, the Potency is reported as inconclusive: 79.4 µM [inhibitor, partial curve, poor fit]. With `O=[N+]([O-])c1cccc2c(Br)[nH]nc12` the Potency was “inactive”. `COc1ccc2c(c1)nc(N)n2Cc1ccccc1` was tested, and the Potency was “inactive”. `Oc1c(Cl)c(Cl)c2ncccc2c1Cl` was tested, and the Potency was inconclusive: 89.1 µM [inhibitor, single point]. With `COc1ccc(/C=C2\Oc3cc(OCC(=O)N4CCC[C@H]4CO)ccc3C2=O)c(OC)c1` the Potency was inconclusive: 70.8 µM [inhibitor, partial curve, poor fit]. `BrC(/C=N/Nc1nc(N2CCOCC2)nc(N2CCOCC2)n1)=C/c1ccccc1` was tested, and the Potency was inconclusive: 50.1 µM [inhibitor, partial curve, poor fit]. With `COc1ccc(Cl)cc1NC(=S)NCCC(c1ccccc1)c1ccccc1` the Potency was “inactive”. `COc1cccc(-n2nc3c(-n4ncc(C#N)c4N)nnc(C)c3c2C)c1` was tested, and the Potency was “inactive”. `CC(Oc1cccc2ccccc12)C(=O)N/N=C/c1cccnc1` (stereo not drawn) was tested, and the Potency was inconclusive: 100 µM [inhibitor, partial curve, poor fit]. In the case of `CCOc1ccc(NC(=O)c2c(NC(=O)Cc3ccccc3)sc3c2CCCCC3)cc1`, the Potency is reported as inconclusive: 50.1 µM [inhibitor, partial curve, poor fit]. For `C#CCOCCOCCOCCNc1nc(N2CCN(C(=O)CCCCCCCCCCNC(=O)[C@@H](CCC(=O)O)n3cc(CCCCCN)nn3)CC2)nc(N2CCN(C(=O)CCCCCCCCCCNC(=O)[C@H](CCCCN)n3cc(C[C@@H](C)CC)nn3)CC2)n1`, the Potency was inconclusive: 112 µM [inhibitor, partial curve, poor fit]. `O=c1cc(CN2CCc3ccccc32)nc2sccn12` was tested, and the Potency was “inactive”. For `Cc1ccc(-c2cc(C(=O)Nc3cccc(S(=O)(=O)N(C)C)c3)c3ccccc3n2)o1`, the Potency was inconclusive: 50.1 µM [inhibitor, partial curve, poor fit]. With `C#CCOCCOCCOCCNc1nc(N2CCN(C(=O)CCCCCCCCCCNC(=O)[C@@H](CCSC)n3cc(CCO)nn3)CC2)nc(N2CCN(C(=O)CCCCCCCCCCNC(=O)[C@H](CO)n3cc(CCCCCN)nn3)CC2)n1` the Potency was inconclusive: 44.7 µM [inhibitor, partial curve, poor fit]. `c1c2c(cc3sc(N4CCOCC4)nc13)OCO2` was tested, and the Potency was inconclusive: 70.8 µM [inhibitor, single point]. For `CCn1c(SCC(=O)Nc2ccc(C(C)=O)cc2)nc2nc3c(cc2c1=O)CCCC3`, the Potency was inconclusive: 31.6 µM [inhibitor, full curve, poor fit]. In the case of `CC(=O)N1CCc2c(sc(NC(=O)c3cccc(N4C(=O)CCC4=O)c3)c2C(N)=O)C1`, the Potency is reported as inconclusive: 44.7 µM [inhibitor, partial curve, poor fit]. For `Cc1c(NC(=O)CSc2nnnn2-c2ccc(C(=O)O)cc2)c(=O)n(-c2ccccc2)n1C`, the Potency was inconclusive: 79.4 µM [inhibitor, partial curve, poor fit]. In the case of `COc1cc(-c2nnc(SCc3cc(=O)oc4cc(O)c(O)cc34)o2)cc(OC)c1OC`, the Potency is reported as inconclusive: 50.1 µM [inhibitor, partial curve, poor fit].
